No constants are given. Whether binding was seen depends on the method and setting. Some binding calls cover weakened binding; strength is not graded here.
Assays:
UFC1 (human) = UFC1 (human) (UniProt Q9Y3C8); test: condition: 9.00E-04 M in the syringe, 1.00E-04 M in the cell (Supplementary Table 2); ITC; MicroCal PEAQ ITC, 25 °C; Tris 20 mM pH 7.5, NaCl 50 mM, DTT 2 mM; UBA5 construct in the syringe into UFC1 in the cell (Supplementary Table 2); 19 injections of 2 μl; fitted to the two sets of sites model; both purified
UBA5 L397R (human) = UBA5 L397R (human) (UniProt Q9GZZ9); test: ITC; UFC1 titrated into the UBA5 construct (heat per mole of UFC1); MicroCal PEAQ ITC, 25 °C; 20 mM Tris pH 7.5, 50 mM NaCl, 2 mM DTT; 19 injections of 2 μl; fitted to the two sets of sites model; both purified
UBA5 M401R (human) = UBA5 M401R (human) (UniProt Q9GZZ9); test: as above
UFC1 (WT) (human) = UFC1 (WT) (human) (UniProt Q9Y3C8); test: NMR titration; UBA5 fragments (347-404: 50-200 μM; 347-392: 0.4-1.6 mM) titrated into 200 μM 15N-labelled UFC1; 2D 1H-15N HSQC, 25 °C; 50 mM HEPES pH 7.0, 50 mM KCl, 1 mM DTT, 0.03% NaN3, 10% D2O; both purified
[1] = biological target: UBA5 (347-404) fragment (human) (UniProt Q9GZZ9); test: SEC-MALS; Superdex 75 10/300 GL; 20 mM Tris pH 7.5, 50 mM NaCl; mass calculated with ASTRA 7; both purified

The chains behind the UniProt entries cited, without tags or fusion partners. Where a name states a change or a piece, a line headed by the entry shows the natural chain unless it says otherwise.
UniProt Q9Y3C8: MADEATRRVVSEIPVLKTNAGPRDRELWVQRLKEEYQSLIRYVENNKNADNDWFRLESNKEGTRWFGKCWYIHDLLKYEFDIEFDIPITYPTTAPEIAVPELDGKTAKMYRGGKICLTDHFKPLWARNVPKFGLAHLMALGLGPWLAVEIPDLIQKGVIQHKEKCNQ
UniProt Q9GZZ9: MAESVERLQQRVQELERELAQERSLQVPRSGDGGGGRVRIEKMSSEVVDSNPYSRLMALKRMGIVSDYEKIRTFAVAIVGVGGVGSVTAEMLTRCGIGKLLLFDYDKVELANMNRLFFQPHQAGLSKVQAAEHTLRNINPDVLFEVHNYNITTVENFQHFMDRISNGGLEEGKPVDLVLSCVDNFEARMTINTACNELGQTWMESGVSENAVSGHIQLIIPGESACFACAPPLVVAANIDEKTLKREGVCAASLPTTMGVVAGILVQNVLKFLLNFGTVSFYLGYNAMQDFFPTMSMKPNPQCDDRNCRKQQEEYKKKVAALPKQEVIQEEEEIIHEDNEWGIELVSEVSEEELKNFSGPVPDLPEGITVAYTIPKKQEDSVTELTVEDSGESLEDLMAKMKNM

Substance: UBA5 1-404 M401R (from UniProt Q9GZZ9 1-404) (enzyme)
- binding (UFC1 (human)): no binding

Substance: UFC1 (WT) (from UniProt Q9Y3C8 1-167) (enzyme)
- binding (UBA5 L397R (human)): no binding
- binding (UBA5 M401R (human)): no binding

Substance: UBA5 linker alone (residues 347–392) (from UniProt Q9GZZ9 347-392) (domain or fragment)
- binding (UFC1 (WT) (human)): binds weakly

Substance: UBA5 (347-404) fragment (from UniProt Q9GZZ9 347-404) (domain or fragment)
- binding [1]: no binding

Substance: UBA5 1-404 L397R (from UniProt Q9GZZ9 1-404) (enzyme)
- binding (UFC1 (human)): no binding

Reference: PMC8481289
